Source: PubChem BioAssay AID485281 (National Center for Advancing Translational Sciences (NCATS), 2010)
Hit rate of the full screen: of about 350,000 compounds, about 260 (0.074%) were called active. The shares of active, inactive and inconclusive entries below differ from those in the screen. The call rests on the fitted dose curve; in most records, active means well fitted inhibition curve with a large enough effect; inconclusive means small, poorly fitted or top-dose-only effect; inactive means no such curve, though single readings can be large or run the other way. Where the call is inconclusive, the potency comes from a doubtful curve fit.

Each compound was assayed against Ferritin light chain (Equus caballus) (UniProt P02791) (assay: qHTS Assay for Identification of Novel General Anesthetics). Conditions: apoferritin/1-aminoanthracene competitive binding, fluorescence; series mostly up to 77.5 µM.
In short: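 Probe: 1-aminoanthracene (50% saturated, PBS). Protein: horse-spleen apoferritin, 10 uM. Incubation: 10 min, room temperature. Detection: 380 nm excitation, 535 nm emission. Analysis: normalized response, four-parameter Hill.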
Further: nearly all actives have a fitted effect of over 20% in size.
Potency means the concentration at half of the fitted maximal effect; tags describe the fitted curve by direction and shape.

UniProt P02791, sequence (P02791 whole entry, looked up): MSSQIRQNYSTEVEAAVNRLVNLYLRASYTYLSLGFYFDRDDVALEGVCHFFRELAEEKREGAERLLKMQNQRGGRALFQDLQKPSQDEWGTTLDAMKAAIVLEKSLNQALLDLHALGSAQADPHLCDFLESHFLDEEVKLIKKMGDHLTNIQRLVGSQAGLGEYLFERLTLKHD

Row | SMILES | Potency
1 | O=C(c1ccc(S(=O)(=O)Nc2ccccc2)cc1)N1CCCC(C(F)(F)F)C1 (centres undefined) | inconclusive: 20 µM [inhibitor, partial curve]
2 | Cc1cc(C)cc(N2C(=O)C3NN=C(C(=O)OCc4ccccc4)C3C2=O)c1 (centres undefined) | inconclusive: 50.1 µM [inhibitor, single point]
3 | CCN(CC)C(=O)c1ccc(COc2ccccc2Cl)cc1 | inconclusive: 22.4 µM [inhibitor, partial curve]
4 | Cc1ccccc1-c1noc(-c2ccccc2OCC(=O)Nc2ccccc2[N+](=O)[O-])n1 | inconclusive: 8.91 µM [inhibitor, partial curve]
5 | NC(=O)SCC(=O)Nc1ccc(Cl)c(Cl)c1 | inconclusive: 28.2 µM [inhibitor, partial curve]
6 | O=C1CC(NNc2ccccc2)C(=O)N1c1ccccc1 (centres undefined) | inactive
7 | O=C1c2oc3ccc(Cl)cc3c(=O)c2C(c2cccc(Br)c2)N1CCO (centres undefined) | inconclusive: 39.8 µM [inhibitor, partial curve]
8 | CN(C)S(=O)(=O)c1cccc(-c2nn(-c3ccccc3)cc2/C=C2\SC(=S)NC2=O)c1 | inactive
9 | O=C(Cn1cnc2ccccc2c1=O)c1ccc2ccccc2c1 | inconclusive: 10 µM [inhibitor, partial curve]
10 | CN(C)S(=O)(=O)c1cc([N+](=O)[O-])ccc1N1CCCCCC1 | inconclusive: 17.8 µM [inhibitor, partial curve]
11 | COc1cc(/C=C2/C(=O)c3cccc([N+](=O)[O-])c3C2=O)c(Br)cc1O | inconclusive: 28.2 µM [inhibitor, partial curve]
12 | C/C(=N\N(Cc1ccccc1)c1ccccc1)c1ccncc1 | inconclusive: 31.6 µM [inhibitor, partial curve]
13 | CCC(C)(C)c1ccc(OCC(=O)Nc2ccncc2)cc1 | inconclusive: 28.2 µM [inhibitor, partial curve]
14 | O=C(CC(=O)NC1CCCCC1)N/N=C/c1ccc(Cl)cc1 | inconclusive: 3.55 µM [inhibitor, full curve]
15 | CC(C)CCNc1nc(-c2ccco2)c2c(c1C#N)CCCC2 | inactive
16 | O=C(c1ccc(F)cc1)C1CCN(CCn2c(=S)[nH]c3ccccc3c2=O)CC1 | inconclusive: 14.1 µM [inhibitor, partial curve]
17 | Cc1cc(-c2ccccc2)c2ccc(NC(=O)C(C)(C)C)nc2n1 | inconclusive: 39.8 µM [inhibitor, partial curve]
18 | COc1cccc2c1NC(C(=O)O)C1CC=CC21 (centres undefined) | inactive
19 | N#CC1(c2ccccc2)CCC(=NO)CC1 (centres undefined) | inconclusive: 28.2 µM [inhibitor, partial curve]
